# In the supplement of paper PMC12217912:
# Some of the results follow. The full chains were built here from the parent and the listed change. Values near 0.05 are background.
# B1: TEV protease; numbered along this chain (parent)
# chain: MGESLFKGPRDYNPISSSICHLTNESDGHTTSLYGIGFGPFIITNKHLFRRNNGTLVVQSLHGVFKVKDTTTLQQHLVDGRDMIIIRMPKDFPPFPQKLKFREPQREERICLVTTNFQTKSMSSMVSDTSCTFPSGDGIFWKHWIQTKDGQCGSPLVSTRDGFIVGIHSASNFTNTNNYFTSVPKNFMELLTNQEAQQWVSGWRLNADSVLWGGHKVFMVKPEEPFQPVKEATQL
# Variants of: B1
# Assay: raw area under fraction-flipped curve 0-4 h after induction (AUC4h, not background-subtracted), DNA-recorder readout of cleavage of the substrate (dimensionless); higher = more cleavage of the substrate by the protease variant
# Conditions: temperature: 34 °C; time window: 0-4 h after rhamnose induction
# Procedure: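 In vivo DNA recorder in E. coli TOP10(DE3) ΔrhaA at 34 °C. Each TEVp single-site mutant (parent TEVp 0) is paired with a single-site variant of the 7-mer TEVs (canonical ENLYFQ|S). The substrate sits between flexible linkers in a Bxb1-sfGFP-TEVs-SsrA fusion, so cleavage stabilises Bxb1 and speeds flipping of a recombination array, read by NGS. The value is the raw area under the fraction-flipped curve over 0-4 h after rhamnose induction (AUC4h), with ≥20 reads per time point. It is not background-subtracted; inactive controls average about 0.047.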
# 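Also: Bxb1 expression induced with 0.2% (w/v) L-rhamnose at OD600 near 0.5, cultures sampled hourly, flipped fraction per protease–substrate barcode pair counted by paired-end Illumina sequencing.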
Variant,area with substrate ENCYFQS,area with substrate ENDYFQS,area with substrate ENGYFQS,area with substrate ENHYFQS,area with substrate ENIYFQS,area with substrate ENKYFQS,area with substrate ENMYFQS,area with substrate ENNYFQS,area with substrate ENQYFQS,area with substrate ENRYFQS,area with substrate ENWYFQS,area with substrate ENFYFQS,area with substrate ENSYFQS,area with substrate ENTYFQS,area with substrate ENEYFQS,area with substrate ENPYFQS,area with substrate ENVYFQS,area with substrate ENYYFQS
D69N,0.065,0.0703,0.0673,0.0463,0.0978,0.0628,0.0985,0.0624,0.0451,0.0869,0.0242,,,,,,,
D149V,,,,,,,0.0752,0.0727,,0.0443,,0.0772,0.08,0.0483,,,,
I19S,,0.0609,,,,,,,0.051,,,,,,0.0723,0.0665,0.0683,
R160S,,0.0378,0.0748,,,,0.089,,0.0686,,,,,,,0.0558,,
M122A,,0.0812,0.0741,0.0716,0.12,,,,0.0534,,0.0464,0.0696,0.0634,0.0717,0.0604,0.0575,,0.0762
R51K,,0.0849,0.0485,,,0.0503,,0.0534,0.0393,0.0615,,,0.0766,,0.0574,,0.0768,
F92E,,0.0659,0.0605,,,0.0354,,,,0.0577,0.0526,0.0578,0.0534,0.0491,,,0.0607,0.0577
N193G,0.0681,0.0779,0.0576,,,,,0.0906,0.0571,,,,0.0417,0.0405,0.0543,0.0697,,
G138N,0.0674,,,0.045,0.0862,,,0.0648,0.0681,,0.0559,,0.115,,,,0.0741,
F133V,0.083,0.0599,0.0646,0.0745,0.111,,0.101,,0.0701,0.0646,0.0669,0.0481,0.0556,0.0611,,0.0768,0.0724,0.0498
F133C,,0.04,,,0.11,,,0.0552,0.0565,0.053,0.0048,,0.0497,0.098,,,0.0246,
T129C,0.0805,0.0604,,0.0606,0.0993,0.0591,0.075,,0.0611,0.0629,0.0486,0.0598,0.0618,0.072,0.0537,,,0.0452
T129F,0.064,0.0625,,0.0531,,0.0797,,,0.0515,0.0604,,0.0575,0.0645,0.0642,0.0796,,0.0849,
K221V,,0.0533,,0.0641,0.0955,,0.0652,0.058,0.0605,,,0.073,0.0593,0.0463,0.0633,0.0649,0.0696,0.0652
D91Q,,,0.0516,,0.0967,0.0548,,,,0.0793,0.0509,,,,0.059,,0.063,
N186P,,0.0583,,0.0699,0.0602,,,0.0661,,,,,0.0579,0.0606,0.0347,,,0.0539

Variant,area with substrate ENCYFQS,area with substrate ENDYFQS,area with substrate ENGYFQS,area with substrate ENHYFQS,area with substrate ENIYFQS,area with substrate ENKYFQS,area with substrate ENMYFQS,area with substrate ENNYFQS,area with substrate ENQYFQS,area with substrate ENRYFQS,area with substrate ENWYFQS,area with substrate ENFYFQS,area with substrate ENSYFQS,area with substrate ENTYFQS,area with substrate ENEYFQS,area with substrate ENPYFQS,area with substrate ENVYFQS,area with substrate ENYYFQS
S158A,,0.0605,0.0705,0.0766,0.106,,,,0.0588,0.0657,0.0699,,0.0585,0.0686,0.0639,,0.0704,
R10E,0.0644,0.0443,,,,,0.0583,0.0653,0.0618,,0.0615,0.0692,0.0735,0.061,,,0.0626,0.0555
Q74R,,,,0.0599,,,,0.0533,,0.0501,,,0.0634,0.0537,0.0661,0.0437,0.0741,0.0613
G166L,,0.0532,,0.0505,,,0.0674,,0.0547,,,,,,,0.0449,0.0531,
I164N,,0.0553,,,0.0553,0.0546,,0.0524,0.0582,0.0573,,,0.0608,0.0603,0.0532,0.0561,0.0523,0.0601
F180E,,0.0477,,,,,0.0587,,,,,0.0491,0.058,,0.056,,,
F180W,,,0.0596,0.0537,,0.0192,0.068,0.0667,0.0497,,,,0.0695,0.0641,0.0564,0.0612,0.0669,0.0636
T55F,,0.0653,0.0669,0.0608,,0.0543,0.0495,0.0577,0.0585,,,0.0623,0.0597,,0.094,0.0663,0.0648,0.06
M219Y,,,0.0719,,,,,0.0574,,0.0555,,,,,,,,
S154F,0.0557,,,,0.106,0.0553,,,0.0617,,,0.0703,,,,0.0623,0.0628,
S135P,,0.0816,0.062,0.0734,,,,0.0672,0.0516,,,,0.0525,0.157,0.0564,,0.0562,0.0592
L22N,,0.0524,0.0745,0.0546,,0.0251,0.0354,0.048,,0.0455,,0.0331,0.0435,,0.0515,,,
S171V,0.0682,0.0619,0.0507,0.036,0.0505,,0.0662,0.0584,0.0539,,,,0.0464,,0.0744,,0.0585,0.0835
L211P,,,0.0673,,,0.0542,,,0.0567,,,,0.0622,,0.059,,,
L211H,,,,0.0546,,0.0621,,0.06,0.0367,,,0.0884,0.0538,,,,0.0747,
